Measurements reported in PubChem BioAssay AID2094 (Broad Institute, 2009).
Hit rate of the full screen: of about 300,000 compounds, about 1,200 (0.4%) were called active. This list was built around the results that the source calls inconclusive (neither active nor inactive); the mix of calls is not that of the screen. No stated cut-off is given here; in the data, active means activity change below about -75% (passing the limit was not always enough); inconclusive means no clear call, values can overlap the other calls.

assay: Vibrio harveyi AI-2 quorum sensing modulators, primary screen, JMH597 strain, luminescence/OD600 ratio (AID 2094); conditions: Vibrio harveyi JMH597 AI-2 luminescence/OD600 ratio, 9 h; at 7.5 µM; active compounds read low; 0 = neutral-control median; strain lacks LuxN and CqsS sensors;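 further: luminescence divided by OD600 gain over 9 h not by final OD600 alone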

Row | SMILES | activity change
1 | COc1ccc2nc(NC(=O)C3CCN(S(=O)(=O)c4cccnc4)CC3)sc2c1 | inconclusive: -58.7%
2 | COC(=O)c1sc(N)c(C(=O)OC)c1COC(=O)CNS(=O)(=O)c1ccc(C)c(C)c1 | inactive: 12.8%
3 | COc1cccc(NC(=O)Nc2cc(NC(=O)Nc3cccc(OC)c3)c(C)nc2C)c1 | inconclusive: -218%
4 | CSc1ccc(S(=O)(=O)N2CCC(C(=O)NCc3ccco3)CC2)cc1 | active: -90.3%
5 | Cc1cc(CN(C)C(=O)c2cc(COc3ccc(C)c(C)c3)on2)on1 | inconclusive: -74.7%
6 | Cc1ccc(O)c(N/C=C/C(=O)c2ccc(F)cc2)c1 | inconclusive: -77.8%
7 | Cc1ccc(Nc2ccccc2N)cc1 | inconclusive: -57%
8 | CC1=CC(=O)C(C(C)C)=C/C1=N/OS(=O)(=O)c1ccccc1 | inconclusive: -165%
9 | Cc1ccc(OCCC(=O)OCC(=O)N2c3ccccc3NC(=O)C2(C)C)cc1 | inconclusive: -76.7%
10 | Cc1ccc(CCNS(=O)(=O)c2ccc(C)cc2)cc1 | inconclusive: -37.7%
11 | Cc1cc(N/N=C/c2ccc(O)cc2O)nc(-c2ccccc2O)n1 | inconclusive: -15%
12 | COC(=O)c1nn(C23CC4CC(CC(C4)C2)C3)c2c1C(=O)N(c1ccc(Br)cc1)C2=O | inactive: 28.6%
13 | CC(C)Cc1nnc(NC(=O)CN2C(=O)c3ccccc3C2=O)s1 | inconclusive: -56.5%
14 | O=C(/C=C/c1cccc([N+](=O)[O-])c1)N1CCN(C(=O)c2ccco2)CC1 | inactive: 6.61%
15 | COC(=O)C(Sc1nc(C)cc(C)c1C#N)c1ccccc1 (configuration not stated) | inactive: 17.3%
16 | COc1ccc(S(=O)(=O)NCCOc2cccc3cccnc23)cc1OC | inconclusive: -169%
17 | CC12CCC(C(=O)NNc3ccccc3)(C(=O)C1=O)C2(C)C (configuration not stated) | inactive: 23.9%
18 | Clc1ccc(Cn2nnc(-c3ccccc3)n2)cc1 | active: -80.8%
19 | CN1CCN(c2nc3nonc3nc2N2CCN(C)CC2)CC1 | inconclusive: -377%
20 | O=C(Cc1ccc(Cl)cc1)NNC(=S)NC(=O)c1cccnc1 | active: -87.6%
21 | Cn1cccc1CNC(=O)Nc1ccc(Cl)cc1 | inconclusive: -49.1%
22 | CCCS(=O)(=O)N1CCc2ccc(NC(=O)C3CCCO3)cc2C1 (configuration not stated) | inactive: 11.8%
23 | NC(=O)CSc1nnc(-c2ccc(S(=O)(=O)N3CCCC3)cc2)o1 | inconclusive: -75.8%

Row | SMILES | activity change
24 | CCCc1ccc(S(=O)(=O)N(C)S(=O)(=O)c2ccc(F)cc2)cc1 | inconclusive: -77.9%
25 | CCOc1ccc(CCNC(=O)c2cc3c(s2)CS(=O)(=O)C3)cc1OCC | inactive: 20.1%
26 | CC(C)=CC(=O)Nc1ccc(OCc2ccccc2)cc1 | active: -82.6%
27 | Cc1ccc(NC(=S)N/N=C/c2ccc([N+](=O)[O-])s2)cc1 | inconclusive: -48.5%
28 | Nc1ccccc1C#CC(=O)c1ccccc1 | active: -90.4%
29 | N#CC1=C(N)NC(SCC(=O)c2ccccc2)=C(C#N)C12CCCC2 | inactive: 37.2%
30 | COc1cccc(C(C[N+](=O)[O-])c2c(C)[nH]n(-c3ccccc3)c2=O)c1 (configuration not stated) | inconclusive: -82.5%
31 | CCc1ccc(NC2=NCC(c3ccccc3)S2)cc1 (configuration not stated) | active: -95.2%
32 | O=C1NC2(CCCC2)C(=O)N1CCS(=O)(=O)Oc1ccccc1 | inactive: 9.96%
33 | O=C(Nc1cccc(Cl)c1)OCc1cnc(Cl)s1 | inconclusive: -74.6%
34 | COc1nc(NCCc2ccc(OC)c(OC)c2)nc(Nc2ccccc2)n1 | inactive: 32.6%
35 | CCC(=O)NC(c1cccs1)c1ccc2cccnc2c1O (configuration not stated) | inconclusive: -48.9%
36 | CC1(c2ccccc2)NC(=O)N(CC(=O)Nc2ccc([N+](=O)[O-])cc2)C1=O (configuration not stated) | active: -88.9%
37 | COc1ccc(CNC(=O)Nc2ccc([N+](=O)[O-])cc2)cc1 | inconclusive: -69.5%
38 | CC(OC(=O)c1ccc(Cl)nc1)C(=O)NC1(C#N)CCCCC1 (configuration not stated) | inconclusive: -116%
39 | CC(NC(=O)c1ccc([N+](=O)[O-])o1)C12CC3CC(CC(C3)C1)C2 (configuration not stated) | inconclusive: -60.6%
40 | Cc1ccc(-n2nc(C(=O)O)cc2-c2ccccc2)cc1 | inactive: 17.5%
41 | O=C(CNC(=O)c1ccccn1)N/N=C/c1ccc2c(c1)OCO2 | inconclusive: -75.3%
42 | N#Cc1ccc(CSc2nnc(NC(=O)CN3C(=O)C4CC=CCC4C3=O)s2)cc1 (configuration not stated) | inconclusive: -414%
43 | O=[N+]([O-])c1ccc(/C=N/NC(=S)Nc2ccccc2F)o1 | inconclusive: -33.4%
44 | Cc1c(C(C)NC(=O)c2cc(COc3cccc4cnccc34)on2)cnn1C (configuration not stated) | active: -81.1%
45 | CC1CC(C)CN(C(=O)C2CCCN(c3ncnc4c3nc3n4CCCCC3)C2)C1 (configuration not stated) | active: -76.2%
46 | O=C(COC(=O)C1CCCCC1)Nc1ccc([N+](=O)[O-])cc1 | active: -83.6%

Row | SMILES | activity change
47 | Cc1ccc(CNC(=O)NC2CCCCC2)cc1 | active: -89.3%
48 | O=C(c1cc(COc2cccc3cnccc23)on1)N1CCCC(CCCO)C1 (configuration not stated) | inconclusive: -42.1%
49 | CCCCn1c(N)c(N(CC(C)C)C(=O)CCNC(=O)c2ccccc2Cl)c(=O)[nH]c1=O | inconclusive: -56.7%
50 | c1ccc(CSc2ncnc3ccccc23)cc1 | inconclusive: -71.7%
51 | [O-]/C(=C(\C(=S)Nc1cccc2ccccc12)[n+]1ccccc1)c1ccc(Cl)s1 | inactive: 16.2%
52 | Cc1ccc(S(=O)(=O)N2CCN(C(=S)NCc3ccc4c(c3)OCO4)CC2)cc1 | inconclusive: -28.4%
53 | O=C(/C=C/c1cn(-c2ccccc2)nc1-c1ccccc1)Nc1ccc(C(=O)O)cc1 | inactive: 36.6%
54 | Cc1onc(C(=O)Nc2cccc(C(F)(F)F)c2)c1[N+](=O)[O-] | inconclusive: -26.8%
55 | C/C(=N\NC(=O)CN1CCCCC1)c1ccccc1O | inactive: -10.6%
56 | O=C(Nc1ccc2nc3n(c(=O)c2c1)CCCCC3)C(=O)N1CCN(c2ccccc2)CC1 | inactive: 34.7%
57 | Cc1ccc(NC2CCCN(C(=O)c3cccc4nccnc34)C2)cc1C (configuration not stated) | inactive: -0.905%
58 | O=C(C#Cc1ccccc1)c1ccco1 | active: -94.3%
59 | O=C(N/N=C/c1cc(Br)c(Br)o1)C(O)c1ccccc1 (configuration not stated) | inconclusive: -70.9%
60 | CCc1cccc(NC(=O)CN(C)S(=O)(=O)c2cnc[nH]2)c1 | inconclusive: -703%
61 | O=C(Nc1ccc(S(=O)(=O)N2CCCC2)cc1)Nc1ccc(F)cc1F | active: -95.6%
62 | COc1ccc(-c2cc(=O)c3cc(OC)ccc3o2)cc1 | inactive: 3.01%
63 | c1ccc2c(c1)oc1c(NCc3ccc4c(c3)OCO4)ncnc12 | active: -87.8%
64 | CC(C)(C)c1ccc(C(=O)c2c[nH]c(C(=O)NCCCn3ccnc3)c2)cc1 | inactive: 50%
65 | O=C(Cc1ccc(Cl)cc1)N/N=C/c1cccs1 | inconclusive: -72%
66 | O=C(COc1ccccc1F)Nc1ccc2[nH]c(=O)[nH]c2c1 | inactive: 11%
67 | CCOC(=O)Cc1cnc(NC(=O)NC(C(=O)OCC)(c2ccccc2)C(F)(F)F)s1 (configuration not stated) | inactive: 62.5%
68 | COc1ccc(-c2csc(Nc3ncccc3C)n2)cc1 | inactive: 3.83%
69 | Cc1cccc(OCC(=O)Nc2cc(C)ccc2O)c1 | active: -84.9%

Row | SMILES | activity change
70 | O=C(Nc1ccccc1)c1nnsc1S(=O)(=O)c1ccc(Cl)cc1 | inconclusive: 118%
71 | CCOC(=O)c1cnn2c(C(F)(F)F)cc(-c3ccccc3)nc12 | inactive: -0.408%
72 | CN(C)S(=O)(=O)c1ccc(Cl)c(C(=O)Nc2nc3ccccc3[nH]2)c1 | inactive: 4.95%
73 | CC1=NN(C(=O)CSCc2ccccc2)C(O)(c2ccc(F)cc2)C1 (configuration not stated) | inactive: 10.6%
74 | Cc1ccc(Cc2c(C)c(C#N)c3[nH]c4ccccc4n3c2=O)cc1 | inactive: -2.3%
75 | N#Cc1c(-c2ccc(F)cc2)noc1N | inconclusive: -152%
76 | O=C(O)c1ccc(Br)c(S(=O)(=O)N2CCCC2)c1 | inactive: -4.77%
77 | O=[N+]([O-])c1ccc(/C=N/Nc2ccnc3cc(Cl)ccc23)o1 | active: -185%
78 | CCc1ccc(NC(=O)CCc2ccc(C)o2)cc1 | inconclusive: -68.1%
79 | CC(=O)NC(c1ccc(C)cc1)c1cc([N+](=O)[O-])c2cccnc2c1O (configuration not stated) | inconclusive: -58.5%
80 | Cc1ccc(C(=O)NC(=S)NNC(=O)c2cccc([N+](=O)[O-])c2)cc1 | inconclusive: -80.3%
81 | O=Cc1sc(=O)n(Cc2cccc(C(=O)O)c2)c1Cl | inconclusive: -44.1%
82 | O=C(NCc1nc(-c2ccccc2)no1)c1ccc(Br)o1 | active: -94.8%
83 | COc1cccc(NC(=O)COc2ccc3c(c2)CCC3)c1 | inconclusive: -58.9%
84 | O=C(c1ccc(-c2ccccc2)cc1)C1CCCN(C(=O)c2cncs2)C1 (configuration not stated) | active: -77.4%
85 | COc1cc(N=Nc2cccc(S(N)(=O)=O)c2)c2ccccc2c1N | inactive: 12.8%
86 | CC1CCN(S(=O)(=O)c2ccc3c(c2)c(=O)c(C(=O)NCc2cccs2)cn3C)CC1 | inactive: 18.9%
87 | O=C(Nc1nc(-c2ccccn2)cs1)c1cc2ccccc2o1 | inconclusive: -83.6%
88 | FC(F)(F)Oc1ccc(NC(=S)Nc2ccc(OC(F)(F)F)cc2)cc1 | inconclusive: -95.3%
89 | Cc1onc(-c2ccccc2)c1C(=O)N/N=C/c1ccc([N+](=O)[O-])s1 | inconclusive: -27.9%
90 | CCCOc1ccc(-c2nc(=S)[nH][nH]2)cc1 | active: -84.5%
91 | Oc1c(Cl)cc(Cl)c(Cl)c1Cc1c(O)c(Cl)cc(Cl)c1Cl | inconclusive: 13.5%
92 | CCOC(=O)CCSc1nnc(-c2cccnc2)n1-c1ccccc1OC | inactive: 11.2%
